In PMC4049815:
Results are given in words; binding and its absence hold for the method and conditions named. In cells and extracts the contact can be indirect. Some results given as binding are weak or reduced against the parent protein; the word gives no strength. Tags and fused reporters may be left off the sequences shown. One block for each molecule: values may come before it.

The chains behind the UniProt entries cited, without tags or fusion partners.
UniProt P43355: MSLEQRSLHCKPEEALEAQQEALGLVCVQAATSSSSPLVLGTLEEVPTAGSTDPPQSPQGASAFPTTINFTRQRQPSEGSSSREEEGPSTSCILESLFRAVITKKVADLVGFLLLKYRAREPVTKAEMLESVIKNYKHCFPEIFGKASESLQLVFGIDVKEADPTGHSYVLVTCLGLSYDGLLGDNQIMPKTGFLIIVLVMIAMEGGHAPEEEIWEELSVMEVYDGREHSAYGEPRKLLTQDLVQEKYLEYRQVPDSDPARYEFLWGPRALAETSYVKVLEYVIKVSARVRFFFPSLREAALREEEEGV
UniProt O88907: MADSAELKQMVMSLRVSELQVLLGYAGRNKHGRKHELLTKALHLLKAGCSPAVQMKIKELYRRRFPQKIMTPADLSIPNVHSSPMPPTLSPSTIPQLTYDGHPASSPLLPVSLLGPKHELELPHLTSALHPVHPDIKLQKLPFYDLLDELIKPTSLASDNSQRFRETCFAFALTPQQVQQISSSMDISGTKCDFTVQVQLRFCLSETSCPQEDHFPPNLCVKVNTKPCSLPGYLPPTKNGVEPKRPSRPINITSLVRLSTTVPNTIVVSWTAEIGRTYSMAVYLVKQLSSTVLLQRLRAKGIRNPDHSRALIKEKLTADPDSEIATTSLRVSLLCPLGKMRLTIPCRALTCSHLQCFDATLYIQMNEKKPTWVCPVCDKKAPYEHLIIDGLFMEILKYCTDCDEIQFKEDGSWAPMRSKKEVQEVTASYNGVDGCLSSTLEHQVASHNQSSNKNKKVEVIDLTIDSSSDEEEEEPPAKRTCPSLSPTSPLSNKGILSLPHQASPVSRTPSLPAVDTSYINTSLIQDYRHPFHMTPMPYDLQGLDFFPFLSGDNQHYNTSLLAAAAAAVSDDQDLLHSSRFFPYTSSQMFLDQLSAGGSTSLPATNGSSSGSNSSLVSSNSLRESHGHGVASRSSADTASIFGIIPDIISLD

Key:
Test in all cases: co-IP; HEK293A cells co-transfected with FLAG-tagged MAGE proteins and Myc-tagged E3 ligases; lysates (10 mM Tris-HCl pH 8.0, 150 mM NaCl, 1 mM EDTA, 1% IGEPAL CA-630, 10% glycerol) precipitated with anti-FLAG antibody at 4°C for 2 hrs, blotted with anti-Myc
[1] = target: T1, FLAG-tagged necdin-like 2 (mouse) (UniProt Q9CPR8)
T1 sequence: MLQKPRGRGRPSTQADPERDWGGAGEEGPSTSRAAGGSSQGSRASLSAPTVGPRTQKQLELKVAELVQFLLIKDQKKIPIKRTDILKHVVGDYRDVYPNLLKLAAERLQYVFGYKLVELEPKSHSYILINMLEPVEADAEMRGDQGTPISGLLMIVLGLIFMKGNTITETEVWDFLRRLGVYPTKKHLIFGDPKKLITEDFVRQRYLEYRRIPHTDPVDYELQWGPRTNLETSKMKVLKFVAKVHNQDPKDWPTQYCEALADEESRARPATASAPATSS

[2] = target: FLAG-tagged MAGEA1 (human) (UniProt P43355)
[3] = target: T2, FLAG-tagged MAGEL2 (mouse) (UniProt Q9QZ04)
T2 sequence: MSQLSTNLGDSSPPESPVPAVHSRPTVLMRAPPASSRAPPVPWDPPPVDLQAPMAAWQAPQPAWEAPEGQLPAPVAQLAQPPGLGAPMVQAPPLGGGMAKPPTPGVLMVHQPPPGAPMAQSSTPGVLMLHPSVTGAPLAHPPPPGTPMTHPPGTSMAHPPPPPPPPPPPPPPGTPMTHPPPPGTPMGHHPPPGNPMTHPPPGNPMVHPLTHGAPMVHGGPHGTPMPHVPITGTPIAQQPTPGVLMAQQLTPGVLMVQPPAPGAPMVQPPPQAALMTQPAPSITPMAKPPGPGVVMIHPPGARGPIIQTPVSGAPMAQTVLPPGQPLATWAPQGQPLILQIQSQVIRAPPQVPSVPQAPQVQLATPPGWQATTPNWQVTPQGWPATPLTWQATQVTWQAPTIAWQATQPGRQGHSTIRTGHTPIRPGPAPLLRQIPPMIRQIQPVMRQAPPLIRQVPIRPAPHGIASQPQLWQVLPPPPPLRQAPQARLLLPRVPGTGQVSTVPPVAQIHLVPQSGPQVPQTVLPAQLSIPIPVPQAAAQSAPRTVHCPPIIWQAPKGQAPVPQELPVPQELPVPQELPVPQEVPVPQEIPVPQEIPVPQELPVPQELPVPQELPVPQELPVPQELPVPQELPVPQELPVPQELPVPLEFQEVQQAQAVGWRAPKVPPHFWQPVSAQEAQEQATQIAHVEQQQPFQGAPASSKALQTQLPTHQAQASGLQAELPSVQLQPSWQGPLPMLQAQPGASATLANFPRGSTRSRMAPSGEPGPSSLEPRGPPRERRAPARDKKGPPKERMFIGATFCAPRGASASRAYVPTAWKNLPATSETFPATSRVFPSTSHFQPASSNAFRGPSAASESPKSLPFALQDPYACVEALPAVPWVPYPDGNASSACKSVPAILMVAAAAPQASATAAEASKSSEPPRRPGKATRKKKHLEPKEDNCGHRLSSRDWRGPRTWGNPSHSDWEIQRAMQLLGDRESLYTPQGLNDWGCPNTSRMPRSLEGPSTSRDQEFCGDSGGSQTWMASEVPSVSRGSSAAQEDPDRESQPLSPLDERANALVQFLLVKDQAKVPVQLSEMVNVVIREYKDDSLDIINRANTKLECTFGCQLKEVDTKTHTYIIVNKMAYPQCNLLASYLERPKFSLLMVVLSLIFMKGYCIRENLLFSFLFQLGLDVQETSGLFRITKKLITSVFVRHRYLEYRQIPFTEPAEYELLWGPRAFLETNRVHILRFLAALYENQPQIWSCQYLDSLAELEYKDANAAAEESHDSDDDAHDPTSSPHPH

[4] = target: T3, FLAG-tagged necdin (full-length) (mouse) (UniProt P25233)
T3 sequence: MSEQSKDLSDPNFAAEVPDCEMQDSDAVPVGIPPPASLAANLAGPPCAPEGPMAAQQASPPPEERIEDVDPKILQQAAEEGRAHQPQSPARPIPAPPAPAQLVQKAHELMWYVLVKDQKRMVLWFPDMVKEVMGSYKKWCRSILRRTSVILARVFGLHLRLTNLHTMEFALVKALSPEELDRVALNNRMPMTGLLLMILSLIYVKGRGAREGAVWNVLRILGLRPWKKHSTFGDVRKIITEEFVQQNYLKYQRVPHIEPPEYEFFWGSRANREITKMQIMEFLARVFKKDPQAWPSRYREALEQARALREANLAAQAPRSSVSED

[5] = target: T4, FLAG-tagged MAGEF1 (human) (UniProt Q9HAY2)
T4 sequence: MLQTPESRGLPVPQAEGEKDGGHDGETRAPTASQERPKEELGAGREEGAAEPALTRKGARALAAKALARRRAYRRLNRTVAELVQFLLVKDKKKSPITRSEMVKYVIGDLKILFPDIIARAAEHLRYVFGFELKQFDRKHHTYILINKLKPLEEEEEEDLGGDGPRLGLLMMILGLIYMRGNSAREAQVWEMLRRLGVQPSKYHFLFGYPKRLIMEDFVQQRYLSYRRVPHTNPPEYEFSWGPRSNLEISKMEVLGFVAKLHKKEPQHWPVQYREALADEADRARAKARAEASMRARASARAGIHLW

binding [1]: no binding
binding [2]: binds
binding [3]: binds
binding [4]: binds
binding [5]: binds
Molecule: Myc-tagged PIAS1 (full-length) (from UniProt O88907 1-651) (enzyme)

binding [1]: no binding
binding [2]: binds
binding [3]: no binding
binding [4]: no binding
binding [5]: no binding
B3: Myc-tagged Nsmce2 (enzyme, UniProt Q91VT1-1 1-247)
chain: MPGRSSTSSGSTRYISFSGIESALSSLKNFQSCISSGMDTVSSVALDLVETQTEVSSEYSMDKAMVEFAKMDRELSHYVKAVQSTINHVKEERPEKVPDLKLLVEKKFLALQDKNSDADFKENEKFVQFKQQLRELKKQYGIHADRENDLTEGVDEDMIVTQSQTNFICPITQLEMKKPVKNKMCGHTYEEEAIVRMIESKHKRKKKACCPKIGCSHTDMRMSDLIPDEALRRAIESHNKKKKRHSE

Further lines, the molecule ahead of its results:

B1: Myc-tagged Nsmce1 (enzyme, UniProt Q9D720 1-266)
chain: MQGSTRRAGAMTDVHRRFLQLLMTHGVLEEWEVRRLQNHCYQVHDRNATVDKLEDFINNINSVLESLYIEIKKGVTEDDGRPIYALVNLATTSVSKMATDFAENELDLFRKALELIVDSETGFASSTNILNLVDQLKGKKMRKKEAEQVLQKFVQSKWLIEKEGEFTLHGRAILEMEQFIRESYPDSVKMCNICHGLLIQGQSCETCGIRMHLPCVAKYFQSIPEPHCPHCNDYWPHDIPEVYNPEKEREAGISKSSRKSLRTRQH
binding [1]: binds
binding [2]: binds
binding [3]: no binding
binding [4]: no binding
binding [5]: binds

B2: Myc-tagged Cbx4 (enzyme, UniProt O55187-1 1-551)
chain: MELPAVGEHVFAVESIEKKRIRKGRVEYLVKWRGWSPKYNTWEPEENILDPRLLIAFQNRERQEQLMGYRKRGPKPKPLVVQVPTFARRSNVLTGLQDSSADNRAKLELGTQGKGQGHQYELNSKKHHQYQPHSKERSGKPPPPGKSGKYYYQLNSKKHHPYQPDPKMYDLQYQGGHKEAPSPTCPDLGTKSHPPDKWAHGAAAKGYLGAVKPLGGGAGAPGKGSEKGPPNGMTPAPKEAVTGNGIGGKMKIVKNKNKNGRIVIVMSKYMENGMQAVKIKSGEAAEGEARSPSHKKRAAEERHPQGDRTFKKAAGASEEKKAEVPCKRREEEALVSGDAQPQDLGSRKLSPTKEAFGEQPLQLTTKPDLLAWDPARSSHPPAHHHHHHHHHHHHHTVGLNLSHARKRCLSETHGEREPCKKRLTARSISTPTCLGGSPVSEHPANVSPTAASLPQPEVILLDSDLDEPIDLRCVKMRSDAGEPPSTLQVKPEAPAVAAVVAPAPASEKPPAEAQEEPVEPLSEFKPFFGNIIITDVTANCLTVTFKEYVTV
binding [1]: no binding
binding [2]: binds
binding [3]: no binding
binding [4]: no binding
binding [5]: no binding
